The campaign covered roughly 48,000 compounds. About 120 (0.25%) were called active. Not shown: some 4% with an inconclusive outcome. Calls come from the whole dose curve; as a rule, active = well fitted activation curve with a large enough effect; inconclusive = small, poorly fitted or top-dose-only effect, or another doubt; inactive = no such curve, though single readings can be large or run the other way. The list shows a part of the results.
test: Primary qHTS for Identification of Small Molecule Activators of Huntingtin-Antisense Promoter Activity; conditions: HEK293 HTT-AS promoter firefly luciferase reporter (activity 0% = vehicle and -100% = no light), 24 h; series mostly up to 57.5 µM; activity change, positive = activation: at the top concentration; note: nearly all actives have a fitted effect of over 55% in size
Outline: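 HEK293 luciferase promoter-reporter cells (2,500/well) plated 24 h, then compounds added at up to 57.5 uM final for 24 h at 37 °C. Firefly luminescence by Dual-Glo, normalized to vehicle (0%) and zero RLU (-100%).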
Potency is the fitted concentration of half-maximal effect.

| Compound | activity change, positive = activation | Potency |
| --- | --- | --- |
| Cc1cc(C)n2nc(CNS(=O)(=O)c3ccc(C)c(C)c3)nc2n1 | inactive: -6.56% | – |
| CC(C)OCCCn1c(SCC(=O)c2ccccc2)nc2c(sc3ccccc32)c1=O | inactive: -10.7% | – |
| COc1ccc(NC(=O)CSc2nc3nc(C)c(Cc4ccccc4)c(C)n3n2)cc1OC | inactive: -27% | – |
| O=C(C1CCN(S(=O)(=O)c2cccc3nonc23)CC1)N1CCN(c2cccc(Cl)c2)CC1 | inactive: -34.5% | – |
| Cc1ccc(Cn2c(=O)c3ccccc3n3c(-c4cccc(O)c4)nnc23)cc1 | inactive: -20.2% | – |
| CCN(CC)CCOC(=O)c1ccc(NC(=O)Cn2ncc3c2-c2cc(C)ccc2OC3)cc1 | inactive: -21.1% | – |
| Cc1nc2sccn2c(=O)c1S(=O)(=O)Nc1cc(Cl)ccc1O | inactive: -14.1% | – |
| CCOC(=O)c1cc(-c2ccc(F)cc2)n(CC(=O)NC2CCCCCC2)c1C | inactive: -20.6% | – |
| COc1ccc(NC(=O)c2c(NC(=O)COc3ccccc3)sc3c2CCC(C(C)(C)C)C3)cc1 (centres undefined) | inactive: -12% | – |
| Cc1ccc(CN(Cc2ccco2)C(=O)c2ccc(OCC(C)C)cc2)cc1 | inactive: -24.1% | – |
| CCCCN1CCc2nc(Nc3ccc(OC)cc3OC)ncc2C1 | inactive: -0.0263% | – |
| Cc1ccc(C)c(N2CCN(C(=O)c3cc4c(=O)n(Cc5ccccc5)ccc4nc3C)CC2)c1 | inactive: -13% | – |
| Cc1ccc2c(c1)N(C(=O)N1CCC(C(=O)NCCc3ccc(Cl)cc3)CC1)CC(C)O2 (centres undefined) | inactive: -14.2% | – |
| CCOc1cccc2c1N[C@@H](c1ccc(C(=O)O)cc1)[C@H]1CC=C[C@@H]21 | inactive: 2.6% | – |
| Cc1cccc(NS(=O)(=O)c2ccc3[nH]c4c(c3c2)CCCCCC4)c1 | inactive: -41.1% | – |
| Cc1ccc(-n2nc(C)c3c(C)c(CCC(=O)NCc4ccccc4Cl)c(C)nc32)cc1C | inactive: -8.7% | – |
| COc1ccc(CCNC(=O)c2ccc3c(c2)N(Cc2ccc(F)cc2)C(=O)CS3)cc1OC | inactive: -36% | – |
| Cc1cccc(-c2nc(CCNC(=O)Cc3ccccc3)cs2)c1 | inactive: -13.2% | – |
| COc1ccc(OC)c(NC(=O)CSc2ccc(-c3sc(C)nc3C)nn2)c1 | inactive: -25.9% | – |
| O=C(COc1ccc(Cl)cc1)Nc1ccc2nc(SCC(=O)N3CCCC3)sc2c1 | inactive: -28.3% | – |
| Cc1nn(C(=O)c2cccc(Cl)c2)c(C)c1S(=O)(=O)N1CCOCC1 | inactive: -14.7% | – |
| COc1ccc(CCNC(=O)C(=O)NCC(c2ccco2)S(=O)(=O)c2cccs2)cc1OC (centres undefined) | inactive: -10.7% | – |
| CCC(=O)N1CCc2cc(S(=O)(=O)NC(CC(C)C)C(=O)NCCc3ccccc3)ccc21 (centres undefined) | inactive: -13.6% | – |
| O=C(c1nc(-c2ccc(Cl)cc2)n2c1CCCCC2)N1CCN(c2ccccc2)CC1 | inactive: -53.6% | – |

| Compound | activity change, positive = activation | Potency |
| --- | --- | --- |
| CCOC(=O)c1c(-c2ccccc2)oc2ccc(N(C(C)=O)S(=O)(=O)c3ccc(CC)cc3)cc12 | inactive: -22% | – |
| OC(CCN1CCCCC1)(c1ccccc1)C1CCCCC1 (centres undefined) | inactive: -10.6% | – |
| O=C(COc1ccccc1-c1nc(-c2ccccc2)no1)Nc1cccc([N+](=O)[O-])c1 | inactive: -10.9% | – |
| COc1cccc(CNC(=O)c2ccc(-c3nc(COc4ccccc4)c(C)o3)cc2)c1 | inactive: -3.95% | – |
| Cc1ccc(CCNC(=O)c2cc3c(s2)-c2c(C)cccc2OC3)cc1 | inactive: -12% | – |
| CCOc1ccc(C2CC(c3c(O)n(C4CCCCC4)c(=O)[nH]c3=O)=Nc3ccccc3S2)cc1 (centres undefined) | inactive: -65.4% | – |
| Cc1ccc2nc(COc3ccccc3NC(=O)C(C)(C)C)cc(=O)n2c1 | inactive: -10.7% | – |
| O=C(Nc1sc2c(c1C(=O)NCc1cccnc1)CCCC2)c1cc(=O)c2ccccc2o1 | inactive: 13.3% | – |
| Cc1ccc(NS(=O)(=O)c2ccc(-n3cccn3)cc2)cc1Cl | inactive: -31.8% | – |
| O=C(Cc1ccc(F)cc1)NCc1ccc2c(c1)CCN2C(=O)c1ccc(F)cc1 | inactive: -21.6% | – |
| CCOC(=O)N1CCc2c(sc3c2c(=O)n(-c2ccccc2C(F)(F)F)c(=O)n3Cc2ccccc2C)C1 | inactive: -44% | – |
| COc1cccc(-n2c(SCC(=O)Nc3c(C)cc(C)cc3C)nc3c([nH]c4ccccc43)c2=O)c1 | inactive: -35.8% | – |
| COc1cccc2c1cc1c(=O)n(CC(=O)NCc3ccc(C)o3)nc(C)n12 | inactive: -3.45% | – |
| O=C(Nc1c(C(=O)N2CCC(N3CCCCC3)CC2)oc2ccccc12)c1c(F)cccc1F | inactive: -9.19% | – |
| Cn1cc(S(=O)(=O)c2ccccc2)c(=O)c2cc(F)c(N3CCN(c4ccc(F)cc4)CC3)cc21 | inactive: -18.3% | – |
| Cc1ccc(-c2nnc(Nc3ccc(Cl)cc3)c3ccccc23)cc1S(=O)(=O)N1CCOCC1 | inactive: -16.5% | – |
| CN(C)S(=O)(=O)c1ccc2c(c1)N(CC(=O)N1CCCCC1)CCS2 | inactive: -7.7% | – |
| CCCCOc1c(C(=O)c2c(F)cc(C)cc2F)cnc2n[nH]cc12 | inactive: -18.1% | – |
| COc1ccc(CNC(=O)CCc2nc3cccnc3n2Cc2ccccc2)cc1 | inactive: -2.76% | – |
| Cc1ccc(Cl)cc1N1CCN(C(=O)c2cn(C)c3ccc(S(=O)(=O)N(C)C4CCCCC4)cc3c2=O)CC1 | inactive: 0.244% | – |
| CCOc1ccc(CCNC(=O)C(C)n2nc(C)n3c(cc4occc43)c2=O)cc1OCC (centres undefined) | inactive: -13.3% | – |
| CC(=O)Nc1ccc(NC(=O)C(Cc2ccccc2)N2Cc3ccccc3C2=O)cc1 (centres undefined) | inactive: -18.8% | – |
| Cc1cccc(N2CCN(C(=O)c3c(C)oc4nc(C)nc(N5CCCC5)c34)CC2C)c1 (centres undefined) | inactive: -27.4% | – |
| Cc1ccc(NC(=O)Cn2c(=O)n(CCC(=O)NCCc3ccccc3)c(=O)c3ccccc32)cc1 | inactive: -5.22% | – |

| Compound | activity change, positive = activation | Potency |
| --- | --- | --- |
| O=C(Cn1cnc(S(=O)(=O)N2CCCC2)c1)Nc1ccccc1 | inactive: -8.27% | – |
| COc1cccc(-n2c(SCC(=O)N3CCCCC3)nc3c([nH]c4ccccc43)c2=O)c1 | inactive: -17.3% | – |
| COc1ccc(NC(=O)c2cc3c([nH]c2=O)CC(c2ccccc2)CC3=O)cc1 (centres undefined) | inactive: -2.55% | – |
| CCCOc1ccc(OC(=O)c2c(-c3ccccc3Cl)noc2C)cc1 | inactive: -2.49% | – |
| COc1ccc(NC(=O)Cn2c(=O)n(-c3ccc(CC(=O)NCC4CCCO4)cc3)c(=O)c3ccccc32)c(OC)c1 (centres undefined) | inactive: -9.42% | – |
| COc1ccc(C2=Nn3c(nc4sc(C(=O)Nc5cccc(C)c5)c(C)c4c3=O)SC2)cc1 | inactive: -1.68% | – |
| COc1ccc(NC(=O)c2ccc3c(c2)c(C)c(C)n3Cc2ccc(F)cc2)c(OC)c1 | inactive: -28.1% | – |
| COc1cccc(CN2C(=O)c3ccccc3Sc3ccc(C(=O)NCCc4ccc(Cl)cc4)cc32)c1 | inactive: -7.96% | – |
| COc1ccc(-c2nn3c(-c4ccc(C)cc4)nnc3c3ccccc23)cc1 | inactive: -9.1% | – |
| CCc1ccc(OCC(=O)N(Cc2ccco2)Cc2ccco2)cc1 | inactive: -8.78% | – |
| COc1ccccc1NC(=O)CCn1nc(-c2ccccc2)c2ccccc2c1=O | inactive: -33% | – |
| O=C(C1CCN(c2nc3ccccc3[nH]2)CC1)N1CCN(c2ccccc2)CC1 | inactive: -14.8% | – |
| COc1nc(-c2ccc3c(c2)OCO3)n(-c2ccc(NC(=O)CSc3ccccc3)cc2)n1 | inactive: 1.39% | – |
| Cc1cc(C)cc(OCc2cc(=O)n3cc(C)sc3n2)c1 | inactive: -6.68% | – |
| Cc1cccc(NCc2nnc3n2CCCCC3)c1C | inactive: -12.7% | – |
| CN(C(=O)c1ccc2c(c1)N(Cc1ccccc1F)C(=O)c1ccccc1S2)C1CCCCC1 | inactive: -14.6% | – |
| COc1ccccc1N1CCN(c2nc3ccc(C)cc3nc2-n2nc(C)cc2C)CC1 | inactive: -30.1% | – |
| CCOC(=O)c1c(C)n(-c2ccccc2)c2ccc(OC(=O)c3ccc(OCC)c(OCC)c3)cc12 | inactive: -26.7% | – |
| Cc1cccc(-c2noc(-c3ccc(NCC4CCCO4)c([N+](=O)[O-])c3)n2)c1 (centres undefined) | inactive: 7.43% | – |
| Cc1ccccc1OCCSc1nc(C)c(Cc2ccccc2)c(=O)[nH]1 | inactive: -29.8% | – |
| COc1ccc(-c2nn(C)c3sc(C(=O)N4CCN(c5ccccc5F)CC4)cc23)cc1OC | inactive: -15.9% | – |
| COc1cccc(CNC(=O)C(C)n2ccc3cc(S(=O)(=O)N4CCCCCC4)ccc32)c1 (centres undefined) | inactive: -30.4% | – |
| COc1ccccc1-c1cc(NC(=O)COc2ccccc2Cl)n(-c2ccccc2)n1 | inactive: 7.95% | – |
| Cc1ccc(-c2[nH]c3ccccc3c2SCCNC(=O)c2ccc(S(=O)(=O)N3CCOCC3)cc2)cc1 | inactive: -28% | – |

| Compound | activity change, positive = activation | Potency |
| --- | --- | --- |
| Cc1cccc2c1-c1sc(C(=O)NCCc3ccc(Cl)cc3)cc1CO2 | inactive: -23.3% | – |
| Cc1ccc(C)c(CN2C(=O)c3ccccc3Sc3ccc(C(=O)NCc4cccs4)cc32)c1 | inactive: -28.6% | – |
| CC(=O)c1cccc(NC(=O)c2noc3c2CSc2ccccc2-3)c1 | – | active: 1.41 µM |
| COc1ccc(NC(=O)c2c(N)c(C(=O)c3ccc(C)cc3)n3ccccc23)cc1OC | inactive: 10.8% | – |
| Cc1cc(C)c2c(-n3cccc3)c(C(=O)NCCCN3CCCCC3)sc2n1 | inactive: -9.01% | – |
| Cc1ccc(C)c(NC(=O)C2CCN(c3nn4c(=O)cc(C)nc4s3)CC2)c1 | inactive: -7.83% | – |
| CCN1CCN(Cc2nc3cc(NC(=O)c4ccccc4[N+](=O)[O-])ccc3n2CC)CC1 | inactive: -8.81% | – |
| COc1ccc(NC(=O)c2ccc3c(c2)c(C)c(C)n3Cc2ccc(F)cc2)cc1 | inactive: -36.7% | – |
| O=C(CCc1ccccc1)NCCc1csc(-c2cccc(F)c2)n1 | inactive: -11.9% | – |
| Cc1cc(C)cc(NC(=O)CN2C(=O)COc3ccc(S(=O)(=O)Nc4ccccc4)cc32)c1 | inactive: -26.8% | – |
| Cc1cn(C)c(CC(=O)NCc2ccc(F)cc2)c1C(=O)O | inactive: -9.19% | – |
| COc1ccc2c(c1)c1c(c(=O)n(-c3cccc(C)c3)c(=O)n1CC(=O)Nc1c(C)cc(C)cc1C)n2C | inactive: -5.39% | – |
| CCc1cccc(NC(=O)CNS(=O)(=O)c2ccc3nc(C)sc3c2)c1 | inactive: -9.39% | – |
| CCOC(=O)c1ccccc1NC(=O)CSc1nc2ncccc2o1 | inactive: -9.28% | – |
| CC1=C(c2ccc(C)cc2)S(=O)(=O)N=C1N1CCN(c2ccccc2)CC1 | inactive: -2.67% | – |
| CNC(=O)c1cccc(-c2ccc3c(N4CCOC[C@H]4C)nc(N4CCOC[C@H]4C)nc3n2)c1 | inactive: -27.5% | – |
| Cc1ccc(CSC2=Nc3ccccc3C3=NC(CC(=O)NC4CCCCC4)C(=O)N23)c(C)c1 (centres undefined) | inactive: -1.19% | – |
| Cc1ccc(NS(=O)(=O)c2ccc3c4c(cccc24)C(=O)N3)c(C)c1 | inactive: -19.7% | – |
| CN(Cc1ccccc1)S(=O)(=O)c1ccc(F)c(C(=O)Nc2ccccc2C(F)(F)F)c1 | inactive: -19.2% | – |
| Cc1ccc(C(NC(=O)Cc2cccs2)C(=O)Nc2ccc(C(C)C)cc2)cc1 (centres undefined) | inactive: 14% | – |
| Cc1cc(Nc2cccc(C(F)(F)F)c2)ncn1 | inactive: -11.2% | – |
| O=C(COc1ccccc1)N(Cc1cccnc1)c1nc2ccc(Cl)cc2s1 | inactive: 25.1% | – |

From PubChem BioAssay AID1508624 (National Center for Advancing Translational Sciences (NCATS), 2021)
